Measured values reported in paper PMC10928841, “Ames test study designs for nitrosamine mutagenicity testing: qualitative and quantitative analysis of key assay parameters” (Mutagenesis, 2023).

How the values were obtained:
[1] = tested on: S. typhimurium TA98, TA100, TA1535, TA1537 and E. coli WP2uvrA pKM101; test: Ames test, pre-incubation method, overall result of five strains; conditions: pre-incubation, up to 5000 µg/plate
S. typhimurium TA100 [2] = test: Ames test, pre-incubation method, TA100; conditions: S9 hamster, up to 5000 µg/plate
E. coli WP2uvrA (pKM101) [3] = test: Ames test, pre-incubation method, WP2uvrA (pKM101); conditions: up to 5000 µg/plate
[4] = tested on: S. typhimurium TA98, TA100, TA1535, TA1537 and E. coli WP2uvrA pKM101; test: Ames test, plate incorporation method, overall result of five strains; conditions: for Ames test Result: up to 5000 µg/plate
S. typhimurium TA1535 [5] = test: Ames test, pre-incubation method, TA1535; conditions: S9 hamster, up to 5000 µg/plate
E. coli WP2uvrA (pKM101) [6] = conditions: plate incorporation, up to 5000 µg/plate
S. typhimurium TA1535 [7] = test: Ames test, plate incorporation method, TA1535; conditions: S9 hamster, up to 5000 µg/plate
S. typhimurium TA100 [8] = test: Ames test, plate incorporation method, TA100; conditions: S9 hamster, up to 5000 µg/plate
[9] = S9 hamster, vehicle acetonitrile

CN(C)N=O [NDMA, N-Nitrosodimethylamine]
Ames test Result ([1]; S9 hamster, vehicle DHF): Positive
Ames test Result ([1]; S9 hamster, vehicle DMF): Negative
Ames test Result ([1]; S9 hamster, vehicle DMSO): Positive
Ames test Result ([1]; S9 hamster, vehicle NMP): Negative
Ames test Result ([1]; S9 hamster, vehicle acetone): Positive
Ames test Result [1, 9]: Positive
Ames test Result ([1]; S9 hamster, vehicle methanol): Positive
Ames test Result ([1]; S9 hamster, vehicle water): Positive
Ames test Result ([1]; S9 rat, vehicle DHF): Negative
Ames test Result ([1]; S9 rat, vehicle DMF): Negative
Ames test Result ([1]; S9 rat, vehicle DMSO): Negative
Ames test Result ([1]; S9 rat, vehicle NMP): Negative
Ames test Result ([1]; S9 rat, vehicle acetone): Negative
Ames test Result ([1]; S9 rat, vehicle acetonitrile): Negative
Ames test Result ([1]; S9 rat, vehicle methanol): Positive
Ames test Result ([1]; S9 rat, vehicle water): Positive
Ames test strain TA100 (S. typhimurium TA100 [2]; vehicle DHF): + (positive for mutagenicity, if a biologically relevant increase in the mean number of revertant colonies above a threshold of 2-fold (TA98, TA100, WP2 uvrA))
Ames test strain TA100 (S. typhimurium TA100 [2]; vehicle DMSO): + (positive for mutagenicity, if a biologically relevant increase in the mean number of revertant colonies above a threshold of 2-fold (TA98, TA100, WP2 uvrA))
Ames test strain TA100 (S. typhimurium TA100 [2]; vehicle acetone): + (positive for mutagenicity, if a biologically relevant increase in the mean number of revertant colonies above a threshold of 2-fold (TA98, TA100, WP2 uvrA))
Ames test strain TA100 (S. typhimurium TA100 [2]; vehicle acetonitrile): + (positive for mutagenicity, if a biologically relevant increase in the mean number of revertant colonies above a threshold of 2-fold (TA98, TA100, WP2 uvrA))
Ames test strain TA100 (S. typhimurium TA100 [2]; vehicle methanol): + (positive for mutagenicity, if a biologically relevant increase in the mean number of revertant colonies above a threshold of 2-fold (TA98, TA100, WP2 uvrA))
Ames test strain TA100 (S. typhimurium TA100 [2]; vehicle water): + (positive for mutagenicity, if a biologically relevant increase in the mean number of revertant colonies above a threshold of 2-fold (TA98, TA100, WP2 uvrA))
Ames test strain WP2* (E. coli WP2uvrA (pKM101) [3]; S9 hamster, vehicle DMSO): + (positive for mutagenicity, if a biologically relevant increase in the mean number of revertant colonies above a threshold of 2-fold (TA98, TA100, WP2 uvrA))
Ames test strain WP2* (E. coli WP2uvrA (pKM101) [3]; S9 hamster, vehicle acetone): + (positive for mutagenicity, if a biologically relevant increase in the mean number of revertant colonies above a threshold of 2-fold (TA98, TA100, WP2 uvrA))
Ames test strain WP2* (E. coli WP2uvrA (pKM101) [3]; [9]): + (positive for mutagenicity, if a biologically relevant increase in the mean number of revertant colonies above a threshold of 2-fold (TA98, TA100, WP2 uvrA))
Ames test strain WP2* (E. coli WP2uvrA (pKM101) [3]; S9 hamster, vehicle methanol): + (positive for mutagenicity, if a biologically relevant increase in the mean number of revertant colonies above a threshold of 2-fold (TA98, TA100, WP2 uvrA))
Ames test strain WP2* (E. coli WP2uvrA (pKM101) [3]; S9 hamster, vehicle water): + (positive for mutagenicity, if a biologically relevant increase in the mean number of revertant colonies above a threshold of 2-fold (TA98, TA100, WP2 uvrA))
Ames test strain WP2* (E. coli WP2uvrA (pKM101) [3]; S9 rat, vehicle methanol): + (positive for mutagenicity, if a biologically relevant increase in the mean number of revertant colonies above a threshold of 2-fold (TA98, TA100, WP2 uvrA))
Ames test strain WP2* (E. coli WP2uvrA (pKM101) [3]; S9 rat, vehicle water): + (positive for mutagenicity, if a biologically relevant increase in the mean number of revertant colonies above a threshold of 2-fold (TA98, TA100, WP2 uvrA))
Ames test Result ([4]; S9 hamster, vehicle DMSO): Positive
Ames test Result ([4]; S9 hamster, vehicle methanol): Positive
Ames test Result ([4]; S9 hamster, vehicle water): Positive
Ames test Result ([4]; S9 none, vehicle DMSO): Negative
Ames test Result ([4]; S9 none, vehicle methanol): Negative
Ames test Result ([4]; S9 none, vehicle water): Negative
Ames test Result ([4]; S9 rat, vehicle DMSO): Negative
Ames test Result ([4]; S9 rat, vehicle methanol): Positive
Ames test Result ([4]; S9 rat, vehicle water): Positive
mutagenicity in any bacterial strain ([4]; absence of S9-mix, water, methanol or DMSO as vehicle): not mutagenic
Ames test strain TA1535 (S. typhimurium TA1535 [5]; vehicle acetone): + (positive for mutagenicity, if a biologically relevant increase in the mean number of revertant colonies above a threshold of 2-fold (TA98, TA100, WP2 uvrA) or 3-fold (TA1535, TA1537))
Ames test strain TA1535 (S. typhimurium TA1535 [5]; vehicle acetonitrile): + (positive for mutagenicity, if a biologically relevant increase in the mean number of revertant colonies above a threshold of 2-fold (TA98, TA100, WP2 uvrA) or 3-fold (TA1535, TA1537))
Ames test strain TA1535 (S. typhimurium TA1535 [5]; vehicle methanol): + (positive for mutagenicity, if a biologically relevant increase in the mean number of revertant colonies above a threshold of 2-fold (TA98, TA100, WP2 uvrA) or 3-fold (TA1535, TA1537))
Ames test strain TA1535 (S. typhimurium TA1535 [5]; vehicle water): + (positive for mutagenicity, if a biologically relevant increase in the mean number of revertant colonies above a threshold of 2-fold (TA98, TA100, WP2 uvrA) or 3-fold (TA1535, TA1537))
Ames test strain WP2* (E. coli WP2uvrA (pKM101) [6]; S9 hamster, vehicle DMSO): + (positive for mutagenicity, if a biologically relevant increase in the mean number of revertant colonies above a threshold of 2-fold (TA98, TA100, WP2 uvrA))
Ames test strain WP2* (E. coli WP2uvrA (pKM101) [6]; S9 hamster, vehicle methanol): + (positive for mutagenicity, if a biologically relevant increase in the mean number of revertant colonies above a threshold of 2-fold (TA98, TA100, WP2 uvrA))
Ames test strain WP2* (E. coli WP2uvrA (pKM101) [6]; S9 hamster, vehicle water): + (positive for mutagenicity, if a biologically relevant increase in the mean number of revertant colonies above a threshold of 2-fold (TA98, TA100, WP2 uvrA))
Ames test strain WP2* (E. coli WP2uvrA (pKM101) [6]; S9 rat, vehicle methanol): + (positive for mutagenicity, if a biologically relevant increase in the mean number of revertant colonies above a threshold of 2-fold (TA98, TA100, WP2 uvrA))
Ames test strain WP2* (E. coli WP2uvrA (pKM101) [6]; S9 rat, vehicle water): + (positive for mutagenicity, if a biologically relevant increase in the mean number of revertant colonies above a threshold of 2-fold (TA98, TA100, WP2 uvrA))
Ames test strain TA1535 (S. typhimurium TA1535 [7]; vehicle DMSO): + (positive for mutagenicity, if a biologically relevant increase in the mean number of revertant colonies above a threshold of 2-fold (TA98, TA100, WP2 uvrA) or 3-fold (TA1535, TA1537))
Ames test strain TA1535 (S. typhimurium TA1535 [7]; vehicle methanol): + (positive for mutagenicity, if a biologically relevant increase in the mean number of revertant colonies above a threshold of 2-fold (TA98, TA100, WP2 uvrA) or 3-fold (TA1535, TA1537))
Ames test strain TA1535 (S. typhimurium TA1535 [7]; vehicle water): + (positive for mutagenicity, if a biologically relevant increase in the mean number of revertant colonies above a threshold of 2-fold (TA98, TA100, WP2 uvrA) or 3-fold (TA1535, TA1537))
Ames test strain TA100 (S. typhimurium TA100 [8]; vehicle DMSO): + (positive for mutagenicity, if a biologically relevant increase in the mean number of revertant colonies above a threshold of 2-fold (TA98, TA100, WP2 uvrA))
Ames test strain TA100 (S. typhimurium TA100 [8]; vehicle methanol): + (positive for mutagenicity, if a biologically relevant increase in the mean number of revertant colonies above a threshold of 2-fold (TA98, TA100, WP2 uvrA))
Ames test strain TA100 (S. typhimurium TA100 [8]; vehicle water): + (positive for mutagenicity, if a biologically relevant increase in the mean number of revertant colonies above a threshold of 2-fold (TA98, TA100, WP2 uvrA))

Like-named read-outs stand apart in the source and are kept apart here.
